Measured values taken from PMC4336329 (PLoS ONE, 2015).
In all, about 310,000 compounds went through this assay and about 2,200 (0.71%) showed an effect of 50% or more. Effects have a minus sign here. The list shows a part of the results.

What follows are compounds tested against human ether-à-go-go-related gene (hERG) potassium channel (human, UniProt Q12809) (assay: primary screen, population patch clamp on CHO cells stably expressing hERG).
Sequence of human ether-à-go-go-related gene (hERG) potassium channel (Q12809 whole entry, looked up): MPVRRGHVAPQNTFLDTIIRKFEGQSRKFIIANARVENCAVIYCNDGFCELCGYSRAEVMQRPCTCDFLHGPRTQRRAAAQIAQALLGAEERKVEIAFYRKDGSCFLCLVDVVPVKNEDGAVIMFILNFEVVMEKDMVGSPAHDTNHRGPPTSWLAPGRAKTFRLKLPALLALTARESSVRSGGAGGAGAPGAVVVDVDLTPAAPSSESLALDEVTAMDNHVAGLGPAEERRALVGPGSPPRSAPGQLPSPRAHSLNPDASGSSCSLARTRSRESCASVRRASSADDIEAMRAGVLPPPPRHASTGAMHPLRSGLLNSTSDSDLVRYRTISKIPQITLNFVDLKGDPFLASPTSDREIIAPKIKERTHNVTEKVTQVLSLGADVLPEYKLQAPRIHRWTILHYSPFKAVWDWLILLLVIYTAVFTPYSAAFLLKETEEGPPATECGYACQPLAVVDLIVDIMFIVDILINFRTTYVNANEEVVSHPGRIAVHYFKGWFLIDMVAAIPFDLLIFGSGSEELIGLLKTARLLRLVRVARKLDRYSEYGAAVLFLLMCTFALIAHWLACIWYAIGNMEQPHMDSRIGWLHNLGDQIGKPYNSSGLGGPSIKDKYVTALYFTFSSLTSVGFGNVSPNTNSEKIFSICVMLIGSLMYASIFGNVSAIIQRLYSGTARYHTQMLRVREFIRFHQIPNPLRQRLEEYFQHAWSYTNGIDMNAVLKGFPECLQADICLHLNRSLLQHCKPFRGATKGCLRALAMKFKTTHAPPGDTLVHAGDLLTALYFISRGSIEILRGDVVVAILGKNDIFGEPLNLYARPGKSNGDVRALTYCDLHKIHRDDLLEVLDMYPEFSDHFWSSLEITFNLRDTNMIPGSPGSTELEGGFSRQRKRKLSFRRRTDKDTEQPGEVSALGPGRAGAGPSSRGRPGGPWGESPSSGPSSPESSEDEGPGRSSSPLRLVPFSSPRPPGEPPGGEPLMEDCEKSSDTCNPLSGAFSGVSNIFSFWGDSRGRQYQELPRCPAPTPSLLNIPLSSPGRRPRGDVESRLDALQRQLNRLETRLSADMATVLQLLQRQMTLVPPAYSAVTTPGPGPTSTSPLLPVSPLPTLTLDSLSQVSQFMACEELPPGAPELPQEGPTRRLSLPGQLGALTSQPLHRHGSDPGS
Protocol: Briefly, Chinese hamster ovary (CHO) cells stably expressing the hERG channel were dislodged from tissue culture flasks and dispensed into PPC plates. […] During the recording, background leak currents were estimated by a 100 ms step to -80 mV from an initial holding potential of -70 mV and subtracted from the subsequent current measurement. The campaign was conducted in two phases using slight differences in recording protocol. In the first phase, the initial voltage pulse used a 100 ms step to -30 mV from a holding potential of -70 mV, a 2 s conditioning step to +25 mV, and a 2 s test step to -30 mV. During the second phase of the screen, the potential during the conditioning step was raised to +45 mV. In both phases of the campaign, a secondary voltage pulse was applied using the same parameters as the second phase initial pulse. The initial and secondary pulses were applied in the absence of compound, and upon application of 1 μM and 10 μM test concentrations. Small molecule effects on hERG current density were quantified by […].
With `NC(=S)NN=C(c1ccccc1)c1ccccc1` the “hERG current change (%, negative = inhibition) at 1uM” value was 7.98%. With `Cc1ccc(NC(=O)C2=CC(c3ccc(C)cc3)=NS(=O)(=O)N2C)cc1` the “hERG current change (%, negative = inhibition) at 1uM” value was -1.75%. For `CN(C)S(=O)(=O)c1ccc(Cl)c(NC(=O)CN2CCC(Cc3ccccc3)CC2)c1`, the “hERG current change (%, negative = inhibition) at 1uM” value was 11.2%. `COC(=O)CCC(=O)Nc1ccc(NC(=O)CCC(=O)OC)cc1` was tested, and the “hERG current change (%, negative = inhibition) at 1uM” value was 8.4%. `CCOc1ccc(NS(=O)(=O)c2ccc(NS(C)(=O)=O)cc2)cc1` was tested, and the “hERG current change (%, negative = inhibition) at 1uM” value was 2.94%. `CC(Sc1nncn1C)C(=O)Nc1ccc(S(N)(=O)=O)cc1` (stereo not shown) was tested, and the “hERG current change (%, negative = inhibition) at 1uM” value was 16.2%. With `CCCCCCOc1ccc(OC(=O)c2cccnc2)cc1` the “hERG current change (%, negative = inhibition) at 1uM” value was 21.5%. `Cc1csc(NC(=O)Cc2ccc(F)cc2)n1` was tested, and the “hERG current change (%, negative = inhibition) at 1uM” value was 20.4%. With `CC(C)CNC(=O)c1cccc(NC(=O)c2ccc(NC(=O)c3ccco3)cc2)c1` the “hERG current change (%, negative = inhibition) at 1uM” value was -26.1%. For `COc1ccccc1CNS(=O)(=O)c1cccc(S(=O)(=O)N2CCOCC2)c1`, the “hERG current change (%, negative = inhibition) at 1uM” value was 9.34%. In the case of `COc1cccc(NC(=S)N/N=C2\CC(C)(C)Oc3ccc(O)cc32)c1`, the “hERG current change (%, negative = inhibition) at 1uM” value is reported as 7.24%. For `Cc1ccc(CNC(=O)c2ccc(C)s2)cc1`, the “hERG current change (%, negative = inhibition) at 1uM” value was 10.4%. With `O=C(CSc1ncnc2sccc12)Nc1ccccc1F` the “hERG current change (%, negative = inhibition) at 1uM” value was 1.66%. In the case of `CSc1ccc(/C=C/C(=O)Nc2ccccc2)cc1`, the “hERG current change (%, negative = inhibition) at 1uM” value is reported as -2.5%. In the case of `Cc1ccc(-n2c(SCC(=O)N/N=C/c3ccccc3C(=O)O)nnc2-c2ccccc2)cc1`, the “hERG current change (%, negative = inhibition) at 1uM” value is reported as 7.87%. With `C/C(=C\C(=O)c1ccccc1)Nc1ccc2c(c1)OCO2` the “hERG current change (%, negative = inhibition) at 1uM” value was 3.23%. With `CCOC(=O)N1CCC(N2CCN(Cc3ccc(F)c(F)c3)C(CCO)C2)CC1` (stereo not shown) the “hERG current change (%, negative = inhibition) at 1uM” value was -13.5%. With `Cn1c(NC(=O)c2cc(Br)ccc2Cl)cc(=O)n(C)c1=O` the “hERG current change (%, negative = inhibition) at 1uM” value was 14.5%. `CCOc1ccc(S(=O)(=O)N2CCOCC2)cc1NC(=O)c1ccc(N2CCCC2=O)cc1` was tested, and the “hERG current change (%, negative = inhibition) at 1uM” value was 14.6%. In the case of `O=C(C1CC(c2ccc(F)cc2)=NO1)N1CCc2ccccc2C1` (stereo not shown), the “hERG current change (%, negative = inhibition) at 1uM” value is reported as 1.62%. `Cc1cccc(NC(=S)N2CCN(S(=O)(=O)c3ccc(F)cc3)CC2)c1` was tested, and the “hERG current change (%, negative = inhibition) at 1uM” value was 15.1%. In the case of `COc1ccc(CNS(=O)(=O)c2ccc(S(=O)(=O)NC3CC3)cc2)cc1`, the “hERG current change (%, negative = inhibition) at 1uM” value is reported as 8.69%. With `O=C(NCCCc1ccc(F)cc1)C1CCC(=O)N(CCN2CCOCC2)C1` (stereo not shown) the “hERG current change (%, negative = inhibition) at 1uM” value was 6.87%. In the case of `CN(C)c1nc(NN)nc(Nc2ccc(F)cc2)n1`, the “hERG current change (%, negative = inhibition) at 1uM” value is reported as -2.32%. In the case of `Cc1ccc(/C=C2\SC(=S)N(NS(=O)(=O)c3ccc(C)cc3)C2=O)cc1`, the “hERG current change (%, negative = inhibition) at 1uM” value is reported as 14.6%.
